# From publication PMC4336329 (PLoS ONE, 2015)
# Screen size: about 310,000 compounds; about 14,000 (4.5%) showed an effect of 50% or more. The effect is printed as a negative number. Some of the results follow.
# Molecular target: human ether-à-go-go-related gene (hERG) potassium channel (human, UniProt Q12809)
# Test: primary screen, population patch clamp on CHO cells stably expressing hERG
# 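Further: peak tail current of the secondary pulse compared with the same well before compound.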
# Chain of human ether-à-go-go-related gene (hERG) potassium channel (Q12809 whole entry, looked up): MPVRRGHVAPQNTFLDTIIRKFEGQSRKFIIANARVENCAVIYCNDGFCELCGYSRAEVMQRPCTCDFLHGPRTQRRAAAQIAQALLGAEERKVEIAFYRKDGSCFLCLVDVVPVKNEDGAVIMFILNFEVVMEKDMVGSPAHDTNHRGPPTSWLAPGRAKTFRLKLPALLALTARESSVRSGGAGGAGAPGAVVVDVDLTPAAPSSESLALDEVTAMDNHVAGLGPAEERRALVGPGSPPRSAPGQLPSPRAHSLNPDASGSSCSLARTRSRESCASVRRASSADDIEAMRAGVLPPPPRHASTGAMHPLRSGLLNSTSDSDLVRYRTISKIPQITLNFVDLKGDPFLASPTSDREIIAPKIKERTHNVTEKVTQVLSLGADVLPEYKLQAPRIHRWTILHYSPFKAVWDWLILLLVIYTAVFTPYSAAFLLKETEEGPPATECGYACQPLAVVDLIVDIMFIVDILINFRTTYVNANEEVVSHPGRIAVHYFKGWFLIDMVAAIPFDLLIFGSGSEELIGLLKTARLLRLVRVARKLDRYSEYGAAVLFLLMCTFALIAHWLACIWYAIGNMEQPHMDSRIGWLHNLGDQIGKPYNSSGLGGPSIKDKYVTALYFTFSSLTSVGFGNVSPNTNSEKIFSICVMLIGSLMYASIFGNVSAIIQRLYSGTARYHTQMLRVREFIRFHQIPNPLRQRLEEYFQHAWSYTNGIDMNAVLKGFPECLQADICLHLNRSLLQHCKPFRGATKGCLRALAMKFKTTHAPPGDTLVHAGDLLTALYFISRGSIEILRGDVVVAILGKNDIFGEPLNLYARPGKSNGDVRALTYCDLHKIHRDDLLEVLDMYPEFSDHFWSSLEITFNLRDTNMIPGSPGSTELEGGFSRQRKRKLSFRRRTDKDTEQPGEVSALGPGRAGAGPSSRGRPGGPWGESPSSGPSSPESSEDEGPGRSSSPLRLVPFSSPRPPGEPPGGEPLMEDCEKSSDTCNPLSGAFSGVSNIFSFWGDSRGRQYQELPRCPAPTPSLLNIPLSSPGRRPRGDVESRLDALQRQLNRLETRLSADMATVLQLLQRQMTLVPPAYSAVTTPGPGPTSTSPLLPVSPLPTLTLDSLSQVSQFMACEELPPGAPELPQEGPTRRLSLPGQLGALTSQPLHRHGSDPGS
row,Compound,"hERG current change (%, negative = inhibition) at 10uM [%]"
1,CCOC(=O)C1=C(O)C(=O)N(c2ccc(S(N)(=O)=O)cc2)C1c1ccc(OC)cc1OC (stereo not drawn),12
2,CN(CC(=O)Nc1ccccc1Cl)C(=O)COC(=O)c1cc(S(=O)(=O)N(C)C)ccc1N1CCCC1,-0.895
3,Cn1c(=O)c(C#N)c(-c2ccccc2)n2cnnc12,-4.47
4,Cc1c(NC(=O)CN2CCN(C(=O)c3ccco3)CC2)c(=O)n(-c2ccccc2)n1C,-1.76
5,CCOC(=O)c1ccc(NC(=O)CCn2c(=O)oc3ccccc32)cc1,4.76
6,O=C(NCC(c1ccco1)N1CCN(c2ccc(F)cc2)CC1)C1CCCCC1 (stereo not drawn),-41.1
7,Cc1cc(N2C(=O)C(O)=C(C(=O)c3ccco3)C2c2cccc(Cl)c2)no1 (stereo not drawn),3.71
8,COc1cccc(CNC(=O)CCCNS(=O)(=O)c2cccs2)c1,0.315
9,COc1ccccc1CC(=O)N(Cc1ccccc1)c1ccc(C)cc1,-16
10,NC(=O)CC[C@@H]1NC(=O)[C@@H]2CCCN2C(=O)c2cc([N+](=O)[O-])cc(I)c2NCCC[C@@H](C(=O)NC(CC(=O)O)C(N)=O)NC1=O (stereo partly drawn),2.63
11,COc1cccc(CN(C)CC2CCCN(CCc3ccccc3C)C2)c1 (stereo not drawn),-109
12,CC(=O)c1ccc(Nc2cc(C)nc3ncnn23)cc1,-4.75
13,O=C(/C=C/c1cccc(Cl)c1)Nn1c(-c2cccs2)nc2ccccc2c1=O,12
14,O=C(/C=C/c1ccccc1)NC(=S)Nc1ncccn1,14.8
15,COc1ccc(CC(=O)NCC2CCCN(Cc3ccc(SC)cc3)C2)cc1 (stereo not drawn),-67.5
16,COc1ccccc1-c1sc2cc3c(cc2c1C#Cc1ccccn1)OCO3,8.78
17,CSCc1cc(N2CCOCC2)nc(-c2ccccc2)n1,-5.59
18,O=C(Cc1cccs1)Nc1nnc(SCc2ccc(C(F)(F)F)cc2)s1,20.6
19,Cc1ccc(CN2C(=O)CCC2C(=O)NCc2ccco2)cc1 (stereo not drawn),-2.47
20,c1ccc(-c2cc(-c3nc(-c4ccccn4)no3)c3ccccc3n2)cc1,5.86
21,CCCC(=O)Oc1cccc(C2NC(=O)c3ccccc3O2)c1 (stereo not drawn),12.6
22,O=C(Nc1cccc(-c2nn[nH]n2)c1)c1cccs1,15.6
23,CCOC(=O)c1cnc2c(cnn2C)c1Oc1ccc(OC)cc1,-43

row,Compound,"hERG current change (%, negative = inhibition) at 10uM [%]"
1,O=C1CC(c2ccccc2)Sc2ccccc2N1 (stereo not drawn),-29
2,Cc1[nH]nc(N)c1-c1ccccc1,22.8
3,Cn1c(=O)cc(Nc2ccc(Cl)cc2)[nH]c1=O,18.9
4,Cc1cc(C)cc(NC(=O)C2CCN(c3nc(C)cc(C)n3)CC2)c1,-3.58
5,C=C(c1ccccc1)c1ccccc1N,4.12
6,Cc1cccnc1NC(=O)CCNC(=O)c1ccc(Cl)cc1,18.3
7,CCOC(=O)c1ccccc1NC(=O)CSc1nc(N)cc(=O)[nH]1,10.1
8,COc1ccc(NC(=O)CN(C)C(=O)c2c(C)nn(Cc3ccc(C)cc3)c2Cl)cc1,9.81
9,O=S(=O)(c1cccc(-c2nc3ccccc3s2)c1)N1CCOCC1,-7.39
10,O=C(NCCn1cccn1)c1ccc(OC2CCN(CCc3ccccc3)CC2)cc1,-41.3
11,Cc1ccc(NC(=O)CSC2=NCCN2)cc1.Cl,23.4
12,CC1COC2N=C(N[N+](=O)[O-])NC2O1 (stereo not drawn),23.5
13,COc1ccc(CCn2cc(C#N)c(=O)[nH]c2=O)cc1OC,31.2
14,Cn1c(SCC(=O)N(C2CCCCC2)C2CCCCC2)nnc1-c1cccs1,-17.3
15,O=C(CSC1CS(=O)(=O)c2cc([N+](=O)[O-])ccc21)NNC(=O)c1ccc(Cl)cc1 (stereo not drawn),-74
16,CCCCn1c(CNC(=O)CCC)nc2ccccc21,-17.3
17,COc1ccccc1N(CC(=O)NC1CCCCC1)C(=O)c1csnn1,12.2
18,CCN(C(=O)CSc1nc(N)cc(=O)[nH]1)C1CCS(=O)(=O)C1 (stereo not drawn),7.22
19,CCN(CC(=O)Nc1ccccc1C(F)(F)F)C(=O)C1CSC2(C)CCC(=O)N12 (stereo not drawn),3.86
20,Cc1ccc(/C=N/NC(=O)c2nnn(-c3nonc3N)c2-c2cccs2)cc1,13.9
21,CCN(CC)c1ccc(CNc2nc3ccccc3n2CC)cc1,-23.5
22,O=C(Nc1ccc(N2C(=O)CCC2=O)cc1Cl)c1cccs1,18.4
